Reference: paper PMC12040169 (PLOS Biology, 2025)
This is one part of the list.

These compounds were tested on T1, C. trachomatis L2/434/Bu expressing GFP (CTL2-GFP). Conditions: total inclusion area; 28.5 h, 10 µM; inhibitor.
T1 construct: L2/434/Bu GFP intracellular growth in HeLa cells
Parameters: species or system HeLa; C. trachomatis total inclusion area by high-content imaging, normalised to DMSO
Outline: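 Following bulk GFP and resorufin fluorescence reads, infected cells were fixed, Hoechst-stained and imaged on a high-content platform. Inclusion total area and number per well served as growth proxies; nuclei counts indicated host viability. MICs were derived as for the fluorescence assay.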
`O=C(N/N=C/c1ccc(N2N=C(c3ccc(Cl)cc3)CC2c2ccc(Cl)cc2)cc1)c1cccnc1` (stereo not shown) [CBK262494] was tested, and the “% of control remaining” value was 59.9325.
For `C=CCC(NCc1ccccc1)c1ccc(C(=O)O)o1` (stereo not shown) [CBK286591], the “% of control remaining” value was 62.3483.
For `O=C(Cc1ccccc1[N+](=O)[O-])Nc1ccc(S(=O)(=O)N2CCCC2)cc1` [CBK265292], the “% of control remaining” value was 93.3976.
`CCn1cc(CN2CCC(c3cc(Cc4cccc(OC)c4)cc(C)n3)CC2)c(C)n1` [CBK285671] was tested, and the “% of control remaining” value was 87.569.
`CC(C)(C)OC(=O)NNC(=S)Nc1ccc(S(N)(=O)=O)cc1` [CBK267107] was tested, and the “% of control remaining” value was 122.887.
`CCOC(=O)c1ccc(-n2c(CCC(=O)O)ccc2-c2ccc(F)cc2)cc1O` [CBK266010] was tested, and the “% of control remaining” value was 132.557.
`COc1nccnc1-c1cc2ccccc2s1` [CBK106781] was tested, and the “% of control remaining” value was 116.658.
With `CN1C[C@@H](NC(=O)Nc2ccccc2)C[C@H]1c1nc(-c2cnccn2)no1` [CBK288851] the “% of control remaining” value was 116.534.
With `O=C(Nc1ccc2[nH]ccc2c1)c1c(F)cccc1F` [CBK144711] the “% of control remaining” value was 105.722.
`CS(=O)(=O)c1ccc(-c2ccc3c(n2)CCN(C2CCN(C(=O)OCc4ccccc4)CC2)C3)cc1` [CBK169530] was tested, and the “% of control remaining” value was 69.6718.
With `c1coc(-c2cc(NC3CCCCC3)ncn2)c1` [CBK090901] the “% of control remaining” value was 89.1361.
For `COc1cncc(-c2cccc(NCC(c3cccnc3)N(C)C)n2)c1` (stereo not shown) [CBK037741], the “% of control remaining” value was 122.202.
With `Cc1cc(N(C)C)cc(C2CCCN(C(=O)c3cccc(F)c3)C2)n1` (stereo not shown) [CBK282003] the “% of control remaining” value was 106.811.
With `COC1=CC2CCNC(CCCCC3NCCc4cc(OC)c(OC)cc43)C2C=C1OC` (stereo not shown) [CBK013354] the “% of control remaining” value was 63.4182.
For `COc1ccc(CCC(=O)Nc2ncccc2OCCCC#N)cc1` [CBK304957], the “% of control remaining” value was 54.4014.
`Cc1ccc(C(=O)COC(=O)c2cc(O)nc3ccccc23)cc1[N+](=O)[O-]` [CBK264085] was tested, and the “% of control remaining” value was 101.559.
`CCN(CC)C(=O)C1CCN(S(=O)(=O)c2ccc(C)cc2)CC1` [CBK157834] was tested, and the “% of control remaining” value was 100.295.
For `CCOC(=O)C1CCCN(C(=O)Cn2ccc3sccc3c2=O)C1` (stereo not shown) [CBK304099], the “% of control remaining” value was 105.245.
`Cn1ccc(C(=O)NCc2cccnc2OCC(F)(F)F)cc1=O` [CBK305574] was tested, and the “% of control remaining” value was 41.1318.
`Cc1cc(N2C(=O)c3oc4ccccc4c(=O)c3C2c2ccncc2)no1` (stereo not shown) [CBK287780] was tested, and the “% of control remaining” value was 54.5121.
`O=C(Cc1c[nH]c2ccccc12)N1CCC2(CCCN(C(=O)c3cscn3)C2)C1` (stereo not shown) [CBK131590] was tested, and the “% of control remaining” value was 91.4299.
For `O=C(O)CC(Cc1ccc(Cl)cc1)C(=O)Nc1ccccc1I` (stereo not shown) [CBK262021], the “% of control remaining” value was 78.0724.
`CCn1cc(C(=O)O)c(=O)c2cc(F)c(N(C)CCc3ccc(OC)c(OC)c3)cc21` [CBK263070] was tested, and the “% of control remaining” value was 78.2715.
`OC[C@H]1CCN(Cc2cc(Cl)ccc2OCCCn2ccnc2)C[C@H]1O` [CBK306581] was tested, and the “% of control remaining” value was 66.5622.
`Cc1ncccc1COC(=O)Nc1cccnc1` [CBK138237] was tested, and the “% of control remaining” value was 123.434.
`CC(C)CN1C(=S)N(Cc2ccc(-c3ccccn3)cc2)[C@H]2[C@H]3OC(=O)[C@H](C[C@H]3O)[C@H]21` [CBK288938] was tested, and the “% of control remaining” value was 81.961.
`Cc1nc(CN2CCCC(NCc3cccc4ccccc34)C2)no1` (stereo not shown) [CBK304068] was tested, and the “% of control remaining” value was 76.5927.
In the case of `CC1CCC(C(N)=O)CN1C(=O)c1ccc(Oc2cccc(Br)c2)nc1` (stereo not shown) [CBK306005], the “% of control remaining” value was 20.4845.
In the case of `COCC(=O)Nc1nc(OC)cnc1/C=C\c1ccccc1` [CBK145360], the “% of control remaining” value was 92.0579.
`COc1ccccc1NC(=O)COc1cccc(Cl)c1Cl` [CBK266029] was tested, and the “% of control remaining” value was 131.309.
For `Clc1cccc(-c2cccc(Nc3cccnc3)n2)c1Cl` [CBK037800], the “% of control remaining” value was 77.121.
In the case of `O=C(NC1CC1)[C@H]1CN(Cc2ccccc2)C[C@@H]1C(=O)c1ccccc1` [CBK285264], the “% of control remaining” value was 77.1177.
With `O=S1(=O)C=C(SCCN2CCCCC2)c2ccccc21` [CBK265328] the “% of control remaining” value was 88.9304.
With `CC(C)N(CC(N)=O)Cc1nc(-c2cccc(C(F)(F)F)c2)no1` [CBK306287] the “% of control remaining” value was 48.4106.
`COc1cc(C=CC(=O)O)ccc1OCc1cn2cc(Cl)ccc2n1` [CBK296722] was tested, and the “% of control remaining” value was 80.5262.
For `Cc1c(-c2cncn2CC(=O)NC(C)(C)C)[nH]c2ccccc12` [CBK281911], the “% of control remaining” value was 93.1473.
For `COc1nccnc1OC1CCN(Cc2ccc(C(F)(F)F)cc2)CC1` [CBK084243], the “% of control remaining” value was 99.2644.
With `CC(C)OC(=O)N1CCC(N(C)Cc2ccc(-c3ccc(S(C)(=O)=O)cc3)cn2)CC1` [CBK165581T] the “% of control remaining” value was 58.1425.
For `COC(=O)c1ccc(NC(=O)CSc2nnc(-c3ccncc3)s2)cc1` [CBK269239], the “% of control remaining” value was 63.1016.
`CC(=O)C(C)Oc1ccccc1-n1cccc1` (stereo not shown) [CBK020334] was tested, and the “% of control remaining” value was 75.3268.
`O=c1[nH]nc(-c2cccs2)n1-c1ccncc1` [CBK283868] was tested, and the “% of control remaining” value was 96.2136.
For `CC(=O)Nc1cccc(-n2nnnc2SCC2CCCCO2)c1` (stereo not shown) [CBK305746], the “% of control remaining” value was 111.026.
With `OC(COc1ccccc1)Cn1ncnn1` (stereo not shown) [CBK026083] the “% of control remaining” value was 45.0873.
For `O=C(COC(=O)c1cc(S(=O)(=O)N2CCCCC2)ccc1Cl)c1ccccc1` [CBK261657], the “% of control remaining” value was 88.374.
With `CN(C)CCCNC(=O)COc1ccccc1` [CBK262189] the “% of control remaining” value was 104.355.
With `CCn1cc(C(=O)N2CCC(C(=O)O)CC2)c(=O)c2cc3c(cc21)OCO3` [CBK286713] the “% of control remaining” value was 85.6079.
With `CN(C)CCN(C)S(=O)(=O)c1ccc(C(C)(C)C)cc1` [CBK059035T] the “% of control remaining” value was 91.0088.
`Fc1cccc(Cl)c1CNc1ccc(CNc2ncn[nH]2)cc1` [CBK267245] was tested, and the “% of control remaining” value was 105.427.
`CCSc1nc(N)cc(O)n1` [CBK086474] was tested, and the “% of control remaining” value was 39.5775.
For `COc1cccc(N2C(=O)/C(=C/c3ccc(O)c(O)c3)SC2=S)c1` [CBK263096], the “% of control remaining” value was 64.5442.
With `Cc1cc(C(=O)N2CCC(c3nn(C)c4ncccc34)CC2)cs1` [CBK284987] the “% of control remaining” value was 86.5898.
With `OCc1ccc(-c2cncc(-c3ccc(O)cc3)n2)cc1` [CBK123792] the “% of control remaining” value was 101.166.
